Where a name gives a salt, the structure may show the parent alone. Some of the results follow. The data scatter; read single values as rough. Non-standard residues stand in square brackets, D forms with d. Residues, ends and D or L forms follow the SMILES beside them. *: point of attachment. Sta = CC(C)C[C@H](N)[C@@H](O)CC(=O)O; Isovaleryl = CC(C)CC(=O)*
Key:
Assay in all cases: ALDHbr (CSC) cell proportion score relative to DMSO vehicle (ratio to DMSO); breast (SUM159) / gastric (MKN45) / pancreatic (PANC1) / colon cancer lines; ALDHbr cells have high ALDH activity and are rich in cancer stem cells (CSC); higher = more CSC (ALDHbr) cells remaining
Settings in all cases: 10 µM; 72 h
MKN45 = tested on: MKN45
PANC1 = tested on: PANC1
SUM159 = tested on: SUM159
T84 = tested on: T84
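Further: High-content imaging of ALDEFLUOR-stained cells with Hoechst-labelled nuclei in 384-well plates, triplicate wells, scored as Z-score against 0.1% DMSO vehicle, negative meaning fewer ALDHbr cells.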

Structure (SMILES) | ALDHbr (MKN45) | ALDHbr (PANC1) | ALDHbr (SUM159) | ALDHbr (T84)
NS(=O)(=O)c1cc(C(=O)O)c(NCc2ccco2)cc1Cl [Furosemide] | 1.08 | 0.946 | 0.984 | 0.864
CC(=O)OCC(=O)NCCCOc1cccc(CN2CCCCC2)c1 [Roxatidine Acetate hydrochloride] | 1.12 | 0.893 | 1.09 | 0.974
Nc1nc2c(ncn2COCCO)c(=O)[nH]1 [Acyclovir] | 1 | 0.946 | 1.07 | 0.809
CC(C)CC(=O)N[C@H](C(=O)N[C@H](C(=O)N[C@@H](CC(C)C)[C@@H](O)CC(=O)N[C@@H](C)C(=O)N[C@@H](CC(C)C)[C@@H](O)CC(=O)O)C(C)C)C(C)C [Pepstatin A] (Isovaleryl-VV[Sta]A[Sta]-OH) | 1.21 | 0.849 | 0.862 | 1.08
C=CC[N@@+]12CC[C@@]34c5ccccc5N5/C=C6/[C@H]7C[C@H]8[C@@]9(CC[N@@+]8(CC=C)C/C7=C/CO)c7ccccc7N(/C=C(/[C@@H](C[C@@H]31)/C(=C\CO)C2)[C@H]54)[C@@H]69 [Alcuronium chloride] | 1.15 | 0.922 | 0.936 | 0.954
CCC(=O)OCC(=O)[C@@]1(OC(=O)CC)[C@H](C)C[C@H]2[C@H]3[C@H]([C@@H](O)C[C@@]21C)[C@@]1(C)C=CC(=O)C=C1C[C@H]3Cl [Alclometasone dipropionate] | 1.03 | 0.757 | 1.14 | 1.05
O=C(NCCO[N+](=O)[O-])c1cccnc1 [Nicorandil] | 0.835 | 0.82 | 0.722 | 0.729
CC(=O)OCC(=O)[C@@]1(O)CC[C@H]2[C@@H]3CCC4=CC(=O)CC[C@]4(C)[C@H]3[C@@H](O)C[C@@]21C [Cortisol acetate] | 0.907 | 0.598 | 0.989 | 1.04
CCN1CCN(C(=O)N[C@@H](C(=O)N[C@@H]2C(=O)N3C(C(=O)O)=C(CSc4nnnn4C)CS[C@H]23)c2ccc(O)cc2)C(=O)C1=O [Cefoperazone dihydrate] | 1.13 | 0.916 | 0.87 | 1.07
Cc1c(C)c2c(c(C)c1O)CCC(C)(C(=O)O)O2 (stereo unspecified) [Trolox] | 0.99 | 1.04 | 0.998 | 1.09
C#C[C@]1(O)CC[C@H]2[C@@H]3CCC4=CC(=O)CC[C@@H]4[C@H]3CC[C@@]21CC [Norgestrel-(-)-D] | 0.682 | 0.841 | 1.17 | 0.925
COc1cc2nc(N3CCN(C(=O)C4CCCO4)CC3)nc(N)c2cc1OC (stereo unspecified) [Terazosin hydrochloride] | 0.966 | 0.85 | 0.972 | 0.954
CCN(CC)CCOCCOC(=O)C1(c2ccccc2)CCCC1 [Carbetapentane citrate] | 0.843 | 0.91 | 1.12 | 1.04
c1coc(CNc2ncnc3nc[nH]c23)c1 [6-Furfurylaminopurine] | 0.931 | 0.878 | 0.945 | 0.924
C[C@]12CCC(=O)C=C1CC[C@@H]1[C@@H]2C(=O)C[C@@]2(C)[C@H]1CC[C@]2(O)C(=O)CO [Cortisone] | 0.878 | 0.857 | 0.976 | 0.948
O=C1O[C@H]([C@@H](O)CO)C(O)=C1O [Ascorbic acid] | 1.27 | 0.845 | 1.18 | 0.925
CCOc1nc2cccc(C(=O)O)c2n1Cc1ccc(-c2ccccc2-c2nnn[nH]2)cc1 [Candesartan] | 1.06 | 0.893 | 0.959 | 0.922
O=C1c2cccc3c2[C@H](CCC3)CN1[C@@H]1CN2CCC1CC2 [Palonosetron hydrochloride] | 0.959 | 1.02 | 1.21 | 0.799
C[C@]12CC[C@@H]3c4ccc(O)cc4C[C@@H](CCCCCCCCC[S+]([O-])CCCC(F)(F)C(F)(F)F)[C@H]3[C@@H]1CC[C@@H]2O (stereo partly specified) [Fulvestrant] | 0.467 | 0.628 | 0.739 | 0.739
CNS(=O)(=O)Cc1ccc2[nH]cc(CCN(C)C)c2c1 [Sumatriptan succinate] | 1.05 | 0.938 | 0.921 | 0.9
Cc1scc2c1N(C(=O)CN1CCN(C)CC1)c1ccccc1NC2=O [Telenzepine dihydrochloride] | 0.971 | 0.896 | 0.844 | 0.949
Cc1c(Cl)cccc1Nc1ccccc1C(=O)O [Tolfenamic acid] | 1.11 | 0.899 | 0.883 | 1.07
COc1ccc2c(c1)c(CC(=O)O)c(C)n2C(=O)c1ccc(Cl)cc1 [Indomethacin] | 1.07 | 0.755 | 0.908 | 0.911
CN(C(=O)C(Cl)Cl)c1ccc(OC(=O)c2ccco2)cc1 [Diloxanide furoate] | 0.0483 | 0.401 | 0.118 | 0.522
Cn1nnc2c(C(N)=O)ncn2c1=O [Temozolomide] | 1.05 | 0.898 | 1.42 | 0.997
CCC(C)n1ncn(-c2ccc(N3CCN(c4ccc(OCC5COC(Cn6cncn6)(c6ccc(Cl)cc6Cl)O5)cc4)CC3)cc2)c1=O (stereo unspecified) [Itraconazole] | 0.121 | 0.952 | 0.784 | 0.354
CC(C)C(=O)c1c(C(C)C)nn2ccccc12 [Ibudilast] | 0.902 | 0.913 | 1.46 | 0.972

Structure (SMILES) | ALDHbr (MKN45) | ALDHbr (PANC1) | ALDHbr (SUM159) | ALDHbr (T84)
CC1=C(CC(=O)O)c2cc(F)ccc2/C1=C\c1ccc([S+](C)[O-])cc1 (stereo unspecified) [Sulindac] | 1.36 | 1.16 | 1.01 | 1.1
CCOC(=O)O[C@]1(C(=O)OCCl)CC[C@H]2[C@@H]3CCC4=CC(=O)C=C[C@]4(C)[C@H]3[C@@H](O)C[C@@]21C [Loteprednol etabonate] | 0.983 | 0.647 | 0.683 | 0.931
CCN(CC)CCOC(=O)C1(c2ccc([N+](=O)[O-])cc2)CCCC1 [Nitrocaramiphen hydrochloride] | 1.04 | 0.932 | 0.597 | 1.01
CC(COc1ccccc1)N(CCCl)Cc1ccccc1 (stereo unspecified) [Phenoxybenzamine hydrochloride] | 0.934 | 1.01 | 0.94 | 1.16
CN(C)CCN(Cc1ccccc1)c1ccccn1 [Tripelennamine hydrochloride] | 1.04 | 1.04 | 0.947 | 0.814
CCCCOC(=O)c1ccc(O)cc1 [Butylparaben] | 0.801 | 0.91 | 1 | 0.96
COc1nc(N)nc2c1ncn2[C@@H]1O[C@H](CO)[C@@H](O)[C@@H]1O [Nelarabine] | 0.727 | 1.48 | 1.93 | 0.916
CCCC(C(=O)OCCN(CC)CC)(c1ccccc1)c1ccccc1 [Proadifen hydrochloride] | 0.781 | 0.9 | 0.711 | 0.854
CCN1CCN(C(=O)N[C@@H](C(=O)N[C@@H]2C(=O)N3[C@@H]2SC(C)(C)[C@@H]3C(=O)O)c2ccccc2)C(=O)C1=O [Piperacillin sodium salt] | 0.968 | 0.877 | 1.23 | 0.906
Oc1ncnc2[nH]ncc12 [Allopurinol] | 0.939 | 0.933 | 1.1 | 0.844
NC[C@H]1CC[C@H](C(=O)O)CC1 [Tranexamic acid] | 0.909 | 0.734 | 1.01 | 1.04
Cc1ccc(-c2ncc(Cl)cc2-c2ccc(S(C)(=O)=O)cc2)cn1 [Etoricoxib] | 0.954 | 0.826 | 0.961 | 1.07
CC(=O)c1ccc2c(c1)N(CCCN(C)C)c1ccccc1S2 [Acetopromazine maleate salt] | 1.22 | 0.698 | 0.765 | 0.624
COc1cccc(OC)c1C(=O)N[C@@H]1C(=O)N2[C@@H]1SC(C)(C)[C@@H]2C(=O)O [Methicillin sodium] | 1.07 | 0.988 | 0.907 | 1.03
Cc1ccccc1C(=O)Nc1ccc(C(=O)N2CCCC(O)c3cc(Cl)ccc32)c(C)c1 (stereo unspecified) [Tolvaptan] | 1.49 | 0.841 | 1.32 | 1.01
O=C1c2cccc(O)c2C(=O)c2c(O)cccc21 [1,8-Dihydroxyanthraquinone] | 0.385 | 0.817 | 3.25 | 0.391
Cc1onc(-c2ccccc2)c1C(=O)N[C@@H]1C(=O)N2[C@@H]1SC(C)(C)[C@@H]2C(=O)O [Oxacillin sodium] | 1.02 | 0.796 | 1.2 | 1.02
CCCC(=O)Nc1ccc(OCC(O)CNC(C)C)c(C(C)=O)c1 (stereo unspecified) [Acebutolol hydrochloride] | 0.97 | 0.954 | 1.4 | 1.02
O=C(O)CCC(=O)Nc1ccc(S(=O)(=O)Nc2nccs2)cc1 [Succinylsulfathiazole] | 1.25 | 0.928 | 1.09 | 0.889
C[C@]12C=CC(=O)C=C1CC[C@@H]1[C@@H]2C(=O)C[C@@]2(C)[C@H]1CC[C@]2(O)C(=O)CO [Prednisone] | 1.04 | 0.809 | 0.924 | 1.07
O=c1[nH]c(=O)n([C@H]2C[C@H](O)[C@@H](CO)O2)cc1C(F)(F)F [Trifluridine] | 0.435 | 1.15 | 1.04 | 0.262
O=C1NCCN1c1ncc([N+](=O)[O-])s1 [Niridazole] | 1 | 1.02 | 0.906 | 0.826
CCCCCCNC(=O)n1cc(F)c(=O)[nH]c1=O [Carmofur] | 0.215 | 0.573 | 0.454 | 0.428
COc1cc(C)nc(-n2nc(C)cc2OC)n1 [Epirizole] | 0.909 | 0.895 | 0.985 | 1.05
CCCCC1=NC2(CCCC2)C(=O)N1Cc1ccc(-c2ccccc2-c2nnn[nH]2)cc1 [Irbesartan] | 1.12 | 0.965 | 1.05 | 0.959
CCCOc1ccc(C(=O)OCCN(CC)CC)cc1N [Proparacaine hydrochloride] | 0.753 | 0.74 | 1.01 | 0.837
Nc1cc(C(Cl)=C(Cl)Cl)c(S(N)(=O)=O)cc1S(N)(=O)=O [Clorsulon] | 0.968 | 0.963 | 1.24 | 0.84

— the supplement of paper PMC11880418
